# From the supplement of paper PMC10338343
# ± gives the standard deviation. The entries are a selection whose mix differs from that of the whole data set.
# Tested on: MIWI (PIWIL1) piRISC loaded with piRNA #1 (30 nt)
# Experiment: pre-steady-state target cleavage rate (min^-1); MIWI and MILI are mouse PIWI proteins and EfPiwi is from a freshwater sponge; tags in brackets are library labels; higher = faster piRNA-guided slicing of the target
# Details: guide: piRNA #1 5'p-UGAGGUAGUAGGUUGUAUAGUAUCCAGAGG; auxiliary factor: 500 nM mouse GTSF1
# Summary of the method: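 The method was Cleave-'n-Seq, in which uncleaved targets from a transcribed, DNA-blocked target RNA library were sequenced after exposure to active affinity-purified piRISC carrying one synthetic guide, with or without GTSF1 partner protein. Reactions contained 0.1 nM library, 1 nM piRISC and, where present, 500 nM GTSF1 in HEPES–potassium acetate buffer at 33 °C for 0–8 or 0–960 min. Reads were normalised to depth and to weakly complementary targets, three trials were pooled, and k3 was capped at 0.0001 min^-1. The pre-steady-state cleavage rate came from a burst-and-steady-state fit.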
row,Sequence,pre-steady-state target cleavage rate
1,GGUCUGGAUACUAAAGAACCUACUACCUCA,1.24 ± 0.098
2,GGAGACCUAUCUAUACAACCUUCAACCUCA,0.0104 ± 0.0031
3,GGACUGGAUACUAUACAACCUACUACCGCA,0.277 ± 0.04
4,CCUCUGGAUACUAUACAACCUACUAGGACA,0.0724 ± 0.02
5,CCUGUGGAUAGUAUACAACCUACUACCUCA,0.0347 ± 0.0098
6,GCUCUGGAUACUAUACAACACUACUACCUCA,0.00578 ± 0.0038
7,GGAGUGGAUACUAUACAACCUACUACCCA,0.238 ± 0.052
8,GGAGACCUAUCUAAACAUCCUACUACCUCA,0.0166 ± 0.0047
9,GGUCUGGAUACUAUUCAAGCUACUACCUCA,1.14 ± 0.059
10,GCACUGGAUACUAUACAACCUAGUACCUCA,0.493 ± 0.048
11,GGAGACCUUACUAUACAACCUACUACCAUCA,1.28 ± 0.095
12,GGUCUGGUUAGUAUACAACCUACUACCUCA,1.28 ± 0.084
13,GGAGACCUAUCUAUACAACCUACUACCUA,0.64 ± 0.049
14,GGACUGGAUACAAUACAACCUACUAGCUCA,0.104 ± 0.019
15,GGUCUGGUUACUAUUCAACCUACUACCUCA,1.64 ± 0.11
16,CCUCUGGAUAGUUUACAACCUACUACCUCA,0.525 ± 0.029
